Data as given in patent US20250051441A1 (FBD BIOLOGICS, published 2025).

Molecular target: T1, human CD47 expressed on cell surface (human, UniProt Q08722)
T1 construct: whole, on cells; The same entry is used for CD47 on CHO-S transfectants, FaDu cells, human RBCs and platelets; also called CD47 tf CHO-S; CD47-expressing FaDu cells
Assay: flow cytometry, whole cell binding to CD47-expressing FaDu cells, PE anti-human IgG, MFI (GeoMean)

B1: HCB201-B (Fc fusion)
chain: [letters of about 350 residues with a human IgG4 Fc left out]AAASGEGKSSGSGSESKSTGMFAQLVAQNVLLIDGPLSWYSDPGLAGVSLTGGLSYKEDTKELVVAKAGVYYVFFQLELRRVVAGEGSGSVSLALHLQPLRSAAGAAALALTVDLPPASSEARNSAFGFQGRLLHLSAGQRLGVHLHTEARARHAWQLTQGATVLGLFRVT
notes: also called HCB201 protein
EC50 (read off the curve): ~0.3 nM

B2: HCB201-C (Fc fusion)
chain 1: [letters of about 120 residues left out]KPSGSGGSGGSGGSGEE[letters of about 120 residues left out]KPSASESKYGPPCPPCPAPEFLGGPSVFLFPPKPKDTLMISRTPEVTCVVVDVSQEDPEVQFNWYVDGVEVHNAKTKPREEQFNSTYRVVSVLTVLHQDWLNGKEYKCKVSNKGLPSSIEKTISKAKGQPREPQVCTLPPSQEEMTENQVSLTCLVKGFYPSDIAVEWESNGQPENNYKTTPPVLDSDGSFFLYSWLTVDKSRWQEGNVFSCSVMHEALHNHYTQKSLSLSLGK
chain 2: RQGMFAQLVAQNVLLIDGPLSWYSDPGLAGVSLTGGLSYKEDTKELVVAKAGVYYVFFQLELRRVVAGEGSGSVSLALHLQPLRSAAGAAALALTVDLPPASSEARNSAFGFQGRLLHLSAGQRLGVHLHTEARARHAWQLTQGATVLGLFRVTPEGGGGSGGGGSRQGMFAQLVAQNVLLIDGPLSWYSDPGLAGVSLTGGLSYKEDTKELVVAKAGVYYVFFQLELRRVVAGEGSGSVSLALHLQPLRSAAGAAALALTVDLPPASSEARNSAFGFQGRLLHLSAGQRLGVHLHTEARARHAWQLTQGATVLGLFRVTPEGGGGSGGGGSRQGMFAQLVAQNVLLIDGPLSWYSDPGLAGVSLTGGLSYKEDTKELVVAKAGVYYVFFQLELRRVVAGEGSGSVSLALHLQPLRSAAGAAALALTVDLPPASSEARNSAFGFQGRLLHLSAGQRLGVHLHTEARARHAWQLTQGATVLGLFRVTPEASESKYGPPCPPCPAPEFLGGPSVFLFPPKPKDTLMISRTPEVTCVVVDVSQEDPEVQFNWYVDGVEVHNAKTKPREEQFNSTYRVVSVLTVLHQDWLNGKEYKCKVSNKGLPSSIEKTISKAKGQPREPRVYTLPPCQEEMTKNQVSLTCLVKGFYPSDIAVEWESNGQPENNYKTTPPVLVSDGSFTLYSRLTVDKSRWQEGNVFSCSVMHEALHNHYTQKSLSLSLGK
notes: also called HCB201 protein
EC50 (read off the curve): ~0.2 nM
